Experimental data published in paper PMC4336329 (PLoS ONE, 2015).
Out of some 310,000 compounds screened, about 14,000 (4.5%) showed an effect of 50% or more. Effects have a minus sign here. The list shows a part of the results.

Molecular target: human ether-à-go-go-related gene (hERG) potassium channel (human, UniProt Q12809)
Assay: primary screen, population patch clamp on CHO cells stably expressing hERG
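Further: peak tail current of the secondary pulse compared with the same well before compound.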

human ether-à-go-go-related gene (hERG) potassium channel, sequence (Q12809 whole entry, looked up): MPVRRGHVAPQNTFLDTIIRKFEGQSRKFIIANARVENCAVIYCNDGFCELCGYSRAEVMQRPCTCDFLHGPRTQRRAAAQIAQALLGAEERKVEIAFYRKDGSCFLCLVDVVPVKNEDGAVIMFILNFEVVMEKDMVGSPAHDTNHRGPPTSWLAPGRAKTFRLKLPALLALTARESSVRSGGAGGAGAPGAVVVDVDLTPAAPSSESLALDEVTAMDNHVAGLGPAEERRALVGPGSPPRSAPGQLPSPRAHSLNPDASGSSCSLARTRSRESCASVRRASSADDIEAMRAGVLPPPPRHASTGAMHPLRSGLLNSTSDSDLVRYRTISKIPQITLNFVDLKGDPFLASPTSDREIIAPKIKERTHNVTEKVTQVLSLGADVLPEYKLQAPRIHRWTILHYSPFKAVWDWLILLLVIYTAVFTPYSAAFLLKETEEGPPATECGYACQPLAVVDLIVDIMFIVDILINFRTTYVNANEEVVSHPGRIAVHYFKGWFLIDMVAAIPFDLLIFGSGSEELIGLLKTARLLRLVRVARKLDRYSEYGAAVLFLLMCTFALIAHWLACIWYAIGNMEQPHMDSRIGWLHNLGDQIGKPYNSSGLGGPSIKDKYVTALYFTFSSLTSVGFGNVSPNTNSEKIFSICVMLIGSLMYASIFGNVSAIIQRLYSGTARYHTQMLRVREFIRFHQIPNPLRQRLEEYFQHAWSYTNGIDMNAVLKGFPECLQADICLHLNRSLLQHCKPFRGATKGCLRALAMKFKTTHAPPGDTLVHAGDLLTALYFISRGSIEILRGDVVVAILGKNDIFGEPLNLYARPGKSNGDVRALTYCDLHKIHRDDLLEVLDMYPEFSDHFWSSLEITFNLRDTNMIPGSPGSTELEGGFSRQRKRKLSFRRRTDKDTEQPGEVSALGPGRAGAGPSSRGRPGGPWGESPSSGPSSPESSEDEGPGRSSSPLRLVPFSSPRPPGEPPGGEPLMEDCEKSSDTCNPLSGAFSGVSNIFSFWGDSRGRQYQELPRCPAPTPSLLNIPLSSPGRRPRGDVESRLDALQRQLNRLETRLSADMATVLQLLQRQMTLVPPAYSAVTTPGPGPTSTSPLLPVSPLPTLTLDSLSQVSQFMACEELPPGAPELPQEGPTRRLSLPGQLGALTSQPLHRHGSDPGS

| Compound | hERG current change (%, negative = inhibition) at 10uM [%] |
| --- | --- |
| Cc1ccc(NC(=O)NCCCl)cc1S(=O)(=O)N1CCOCC1 | 1.99 |
| Cl.Oc1cccnc1CCc1ccccc1 | 7.41 |
| COc1ccc(CCNc2nc(C)nc3c2nnn3Cc2ccccc2)cc1OC | 9.27 |
| COc1cc(N2C(=O)CSC23C(=O)Nc2ccccc23)cc(OC)c1OC (centres unmarked) | -4.35 |
| COc1ccc(-c2nc(N)n(C(=O)c3ccccc3Cl)n2)cc1 | 2.37 |
| COc1ccc(C)cc1-n1ccn(CC(=O)Nc2ccc(Br)cc2F)c(=O)c1=O | -10.5 |
| O=C(Nc1ccccc1)c1ccc(=O)n(Cc2cccc(Cl)c2)c1 | -32.1 |
| Cc1scc(C(=O)N2CCN(c3ccc(Cl)cc3)CC2)c1C | -3.66 |
| Cc1cc(C)c2c(CN3CCN(CCO)CC3)cc(=O)oc2c1 | -50.4 |
| CCCCn1c(=O)n(Cc2cccc(F)c2)c(=O)c2c1ncn2Cc1ccco1 | -14.7 |
| COCCCN1CCc2[nH]c(=S)[nH]c(=O)c2C1 | 12.2 |
| COc1cc(SC)ccc1C(=O)Nc1nc(C)cs1 | 12.3 |
| Cc1cc([N+](=O)[O-])ccc1NC(=S)NC(=O)Cc1ccccc1 | 4.65 |
| O=C(CCCCn1c(=O)[nH]c2ccccc2c1=O)NCCc1c[nH]c2ccccc12 | -0.372 |
| O=c1c2sc(-c3ccccc3)cc2nc2n1CCCCC2 | -13.1 |
| C[N+](C)(C)CCOC(N)=O.[Cl-] | 17.7 |
| Cc1c(C(=O)O)c(-c2ccccc2)nn1-c1ccccc1 | 10.9 |
| O=c1oc2ccc(C#CC3(O)CCCCC3)cc2cc1-n1cc(C2(O)CCCCC2)nn1 | 24.7 |
| CNC(=O)C1CN(C(=O)c2cccc(S(=O)(=O)N3c4ccccc4CC3C)c2)c2ccccc2O1 (centres unmarked) | -30.7 |
| COC(C(=O)Nc1ccc(C(N)=O)cc1)c1ccccc1 (centres unmarked) | 13.9 |
| CC(=O)c1cccc(NC(=O)C(C)OC(=O)c2cccc(-n3cnnn3)c2)c1 (centres unmarked) | -31.9 |
| Cc1ccc2nsnc2c1NC(=S)NC(=O)c1ccco1 | 9.47 |
| O=C(O)CCC(=O)Nc1ccc(-c2nnc(-c3ccco3)o2)cc1 | 7.35 |

| Compound | hERG current change (%, negative = inhibition) at 10uM [%] |
| --- | --- |
| CNC(=S)/N=C/NOCc1ccc(Cl)cc1Cl | -10.2 |
| COc1ccc(NC(=O)NCCCCc2ccccc2)c(OC)c1 | 21.3 |
| CC(C)[C@H](NC(=O)N1CC(=O)Nc2ccccc21)C(=O)N1CCC(C(=O)O)CC1 | 22.2 |
| CC(/C=C/c1ccccc1)=N\Nc1nc(C)cc(C)n1 | -16.8 |
| O=Cc1c(-c2ccccc2)cc2oc3ccccc3cc1-2 | 26.4 |
| O=[N+]([O-])c1ccc(N2CCOCC2)cc1SCc1ccco1 | -18.7 |
| O=C(NC(=S)NNC(=O)c1ccccc1O)c1ccccc1 | 23.3 |
| Cc1cc(NC(=O)CCC(=O)N(CC(=O)NCC2CCCO2)c2ccccc2)no1 (centres unmarked) | 27.5 |
| Cc1scc(C(=O)NCc2ccco2)c1-c1ccccc1 | 4.42 |
| Cc1nc2ccccn2c1C(=O)/C=C/c1cccc([N+](=O)[O-])c1 | -32.1 |
| CCCCN(C)c1nc(-c2ccco2)c2c(c1C#N)CC(C)(C)OC2 | 5.54 |
| Cc1ccc(S(=O)(=O)CCSc2nc(C)cc(C(F)(F)F)c2C#N)cc1 | -31 |
| CN(CC(=O)Nc1ccccc1Cl)C(=O)Cn1cc(C(F)(F)F)ccc1=O | -3.43 |
| Cc1ccc(S(=O)(=O)NCc2nc(-c3ccccc3)no2)cc1 | 1.69 |
| CCNC(=S)NNC(=O)CC(C)C | 24.6 |
| COc1ccccc1NS(=O)(=O)c1ccc(NC(=O)Cc2cccs2)cc1 | 0.963 |
| CC(=O)Nc1ccc(S(=O)(=O)N(C)CC(=O)N/N=C/c2cccs2)cc1 | 0.815 |
| CN(C)C=NC(=O)c1cc(C(=O)c2ccccc2)c[nH]1 | 10.6 |
| C=CCNS(=O)(=O)c1ccc(C(=O)OCc2cc(=O)oc3cc(OC)ccc23)cc1 | 3.66 |
| CC(C)(C)SCCNC(=O)/C=C/c1cccc([N+](=O)[O-])c1 | -28.4 |
| CC(=O)Nc1nc2cc3c(cc2s1)OCCO3 | -6.79 |
| COc1ccc(C2NC(=O)NC(C)=C2C(=O)Nc2cc(C)ccc2C)cc1OC (centres unmarked) | 1.59 |
| O=C1CCCN1C(=O)CCC(=O)N1CCCC1=O | -29 |

| Compound | hERG current change (%, negative = inhibition) at 10uM [%] |
| --- | --- |
| COc1ccccc1NC(=O)c1cc(Cl)nc2ccccc12 | -1.87 |
| COC(=O)c1cc(NC(=S)N2CCN(C(=O)C3CCCO3)CC2)cc(C(=O)OC)c1 (centres unmarked) | -6.49 |
| CCc1ccc(NC2=NCC(=O)N2Cc2ccc3c(c2)OCO3)cc1 | -8.76 |
| Cc1onc(-c2ccccc2)c1C(=O)Nc1cccnc1 | -10.2 |
| COCCCNCC#CCOc1ccc(OC)cc1.O=C(O)C(=O)O | 0.922 |
| CCOc1ccc(/C(O)=C2/C(=O)C(=O)N(CCOCCO)C2c2ccccc2)cc1 (centres unmarked) | 4.5 |
| O=C(NNC(=O)c1ccc([N+](=O)[O-])cc1)c1ccc(Br)cc1 | 14.5 |
| CN(CC(=O)NC1(C)CCS(=O)(=O)C1)S(=O)(=O)c1ccc(Cl)cc1 (centres unmarked) | 5.87 |
| Cc1ccc(C)c(S(=O)(=O)N2CCN(C(=O)CSc3ccccc3)CC2)c1 | -28.8 |
| Cc1ccc(S(=O)(=O)/N=C(\Nc2cc(C)on2)c2ccc(Cl)cc2)cc1 | -27.3 |
| COCCN(C(=O)CSc1nnc(-c2cccc(F)c2)n1N)c1c(N)n(CC(C)C)c(=O)[nH]c1=O | 11.9 |
| COc1cc(Nc2cc(C)nc3nc(C)nn23)cc(OC)c1OC | 2.57 |
| COCc1c(Br)c(C)[nH]c(=O)c1C#N | -9.4 |
| Cc1cc(C)cc(NC(=S)NC2CC3CCC(C2)N3Cc2ccco2)c1 (centres unmarked) | -71.5 |
| Cc1c(C(=O)N2CCC(Cc3ccccc3)CC2)sc2ncnc(N3CCC(C)CC3)c12 | 8.19 |
| O=C1CCCc2c1cc(C(=O)NCCCN1CCOCC1)c(=O)n2-c1ccc(Cl)cc1 | 1.59 |
| COC(=O)[C@@]12CCCN1[C@H](c1ccc(-c3ccc(OC)cc3)c(OC)c1)[C@H]1C(=O)N(C)C(=O)[C@H]12.O=C(O)C(F)(F)F | -30.1 |
| C=CCNc1cnn(CC(C)=O)c(=O)c1Br | -5.81 |
| O=C(c1cc(COc2ccc3ncccc3c2)on1)N1CCCC1 | 10.5 |
| COc1ccc(N(CC(=O)Nc2ccc(C)cn2)S(=O)(=O)c2c(C)nn(C)c2C)cc1 | -17.4 |
| CC1C(=O)C(C)C(c2cccs2)NC1c1cccs1 (centres unmarked) | -4.79 |
| CC(=O)c1ccccc1NS(=O)(=O)c1c(C)nn(-c2ccccc2)c1C | 3.03 |
| Cc1cc(C)c(C#N)c(N2CCN(c3ccccc3F)CC2)n1 | 17.3 |

| Compound | hERG current change (%, negative = inhibition) at 10uM [%] |
| --- | --- |
| COc1ccc(CNC(=O)CN(C(=O)c2csnn2)c2cnc3ccccc3c2)cc1 | -27 |
| COC(=O)c1cc(C)sc1NC(=O)C1C2C=CC(CC2)C1C(=O)O (centres unmarked) | 10.5 |
| CN(c1ccc(C(=O)NCC2CCCO2)cc1)S(C)(=O)=O (centres unmarked) | 9.92 |
| O=C1NC(=O)/C(=C/c2cc3c(cc2Br)OCO3)S1 | 16.5 |
| Cc1cccc(OCC(=O)Nc2nccs2)c1C | 5.94 |
| COc1ccc(C(=O)Nc2nc(-c3ccc(OC)cc3)c(-c3ccc([N+](=O)[O-])cc3)s2)cc1 | 23.1 |
| CCc1nnc(NC(=O)CSc2nc3ccccc3o2)s1 | 2.62 |
| C=CCn1c(SCC(=O)NC2CCCC2)nc2c([nH]c3ccccc32)c1=O | -40.8 |
| CCC12CCCN3CCc4c(n(c5ccccc45)C(O)(C(=O)OC)C1)C32 (centres unmarked) | -28.9 |
| CN1C(=O)CC(N2CCN(c3ccccc3)CC2)C1=O (centres unmarked) | 21.1 |
| O=C(c1ccc(COc2ccccc2Cl)o1)N1CCCC1 | -23.6 |
| CNC(=S)N/N=C/c1cc(Br)c(OCc2ccncc2)c(OC)c1 | 3.01 |
| CCN(CC)c1nc(N2CCOCC2)c(C#N)c2c1CN(C)CC2 | -7.2 |
| COc1ccc(C(C)(C)C)cc1NC(=O)COC(=O)c1cnc(C)cn1 | 1.74 |
| COc1ccc(S(=O)(=O)N(C)C2(C)CCS(=O)(=O)C2)cc1OC (centres unmarked) | 1.33 |
| COC(=O)C1CCN(C(=O)c2ccc(OC3CCN(Cc4ccccn4)CC3)cc2)CC1 | 15.3 |
| Cc1ccccc1NC(=O)Cn1c(=O)n(Cc2ccccc2)c(=O)c2c(C)c(C)sc21 | 4.45 |
| Cn1nnnc1Sc1ncnc2scc(-c3ccc(C#N)cc3)c12 | -21.2 |
| CC(C)c1ccc(NC(=O)CCN2C(=O)c3ccc([N+](=O)[O-])cc3C2=O)cc1 | -0.849 |
| Cc1nn(C)c(C(=O)NNC(=S)NCC(C)C)c1Cl | 14.8 |
